Source: PMC4807272, “Structural Determinants of Oligomerization of the Aquaporin-4 Channel*” (The Journal of Biological Chemistry, 2016)

Columns and labels:
[1] = molecular target: the molecule itself; assay: native gel or EMSA; BN-PAGE (8% bis-tris gel, pH 7.0, on ice) of whole-cell lysates of transfected HEK293 cells in 1% Triton X-100 BN lysis buffer, then immunoblot (anti-AQP4 or anti-GFP) and densitometry; self-association: tetramer, dimer, monomer bands
[2] = molecular target: the molecule itself; assay: as above; remark: listed apart in the source

B1: wild-type human AQP4, C-terminal GFP fusion (natural protein)
chain: MSDRPTARRWGKCGPLCTRENIMVAFKGVWTQAFWKAVTAEFLAMLIFVLLSLGSTINWGGTEKPLPVDMVLISLCFGLSIATMVQCFGHISGGHINPAVTVAMVCTRKISIAKSVFYIAAQCLGAIIGAGILYLVTPPSVVGGLGVTMVHGNLTAGHGLLVELIITFQLVFTIFASCDSKRTDVTGSIALAIGFSVAIGHLFAINYTGASMNPARSFGPAVIMGNWENHWIYWVGPIIGAVLAGGLYEYVFCPDV[… about 60 residues …]
notes: aquaporin-4 (AQP4), human cDNA in pDEST47; only the M1 isoform was expressed from the construct (323 residues); An untagged construct (stop codons in the GFP linker) was also made; also called AQP4 WT; AQP4-GFP; source: HEK293, transiently transfected, in Triton X-100 lysate; not shown: GFP, C-terminal, kept
[1]
  stoichiometry N: 4

B2: AQP4 L51A, C-terminal GFP fusion (natural protein, human)
chain: MSDRPTARRWGKCGPLCTRENIMVAFKGVWTQAFWKAVTAEFLAMLIFVLASLGSTINWGGTEKPLPVDMVLISLCFGLSIATMVQCFGHISGGHINPAVTVAMVCTRKISIAKSVFYIAAQCLGAIIGAGILYLVTPPSVVGGLGVTMVHGNLTAGHGLLVELIITFQLVFTIFASCDSKRTDVTGSIALAIGFSVAIGHLFAINYTGASMNPARSFGPAVIMGNWENHWIYWVGPIIGAVLAGGLYEYVFCPDV[… about 60 residues …]
notes: aquaporin-4 (AQP4), human cDNA in pDEST47; M1 isoform (323 residues); source: HEK293, transiently transfected, in Triton X-100 lysate; not shown: GFP, C-terminal, kept
[2]
  stoichiometry N: 4

B3: AQP4 TM2 compound mutant (L72A/L79A), C-terminal GFP fusion (natural protein, human)
chain: MSDRPTARRWGKCGPLCTRENIMVAFKGVWTQAFWKAVTAEFLAMLIFVLLSLGSTINWGGTEKPLPVDMVAISLCFGASIATMVQCFGHISGGHINPAVTVAMVCTRKISIAKSVFYIAAQCLGAIIGAGILYLVTPPSVVGGLGVTMVHGNLTAGHGLLVELIITFQLVFTIFASCDSKRTDVTGSIALAIGFSVAIGHLFAINYTGASMNPARSFGPAVIMGNWENHWIYWVGPIIGAVLAGGLYEYVFCPDV[… about 60 residues …]
notes: as for B2
[2]
  stoichiometry N: 4

B4: AQP4 L72A, C-terminal GFP fusion (natural protein, human)
chain: MSDRPTARRWGKCGPLCTRENIMVAFKGVWTQAFWKAVTAEFLAMLIFVLLSLGSTINWGGTEKPLPVDMVAISLCFGLSIATMVQCFGHISGGHINPAVTVAMVCTRKISIAKSVFYIAAQCLGAIIGAGILYLVTPPSVVGGLGVTMVHGNLTAGHGLLVELIITFQLVFTIFASCDSKRTDVTGSIALAIGFSVAIGHLFAINYTGASMNPARSFGPAVIMGNWENHWIYWVGPIIGAVLAGGLYEYVFCPDV[… about 60 residues …]
notes: as for B2
[2]
  stoichiometry N: 4

B5: AQP4 loop D2 compound mutant (D184A/V185A/T186A/G187A/S188A), C-terminal GFP fusion (natural protein, human)
chain: MSDRPTARRWGKCGPLCTRENIMVAFKGVWTQAFWKAVTAEFLAMLIFVLLSLGSTINWGGTEKPLPVDMVLISLCFGLSIATMVQCFGHISGGHINPAVTVAMVCTRKISIAKSVFYIAAQCLGAIIGAGILYLVTPPSVVGGLGVTMVHGNLTAGHGLLVELIITFQLVFTIFASCDSKRTAAAAAIALAIGFSVAIGHLFAINYTGASMNPARSFGPAVIMGNWENHWIYWVGPIIGAVLAGGLYEYVFCPDV[… about 60 residues …]
notes: aquaporin-4 (AQP4), human cDNA in pDEST47; M1 isoform (323 residues); 184-DVTGS-188 changed to alanines; source: HEK293, transiently transfected, in Triton X-100 lysate; not shown: GFP, C-terminal, kept
[2]
  percent of the protein as dimers: 67%

B6: AQP4 TM4 compound mutant (L161A/I165A), C-terminal GFP fusion (natural protein, human)
chain: MSDRPTARRWGKCGPLCTRENIMVAFKGVWTQAFWKAVTAEFLAMLIFVLLSLGSTINWGGTEKPLPVDMVLISLCFGLSIATMVQCFGHISGGHINPAVTVAMVCTRKISIAKSVFYIAAQCLGAIIGAGILYLVTPPSVVGGLGVTMVHGNLTAGHGLAVELAITFQLVFTIFASCDSKRTDVTGSIALAIGFSVAIGHLFAINYTGASMNPARSFGPAVIMGNWENHWIYWVGPIIGAVLAGGLYEYVFCPDV[… about 60 residues …]
notes: as for B2
[2]
  stoichiometry N: 4

B7: AQP4 S188D (phosphomimetic), C-terminal GFP fusion (natural protein, human)
chain: MSDRPTARRWGKCGPLCTRENIMVAFKGVWTQAFWKAVTAEFLAMLIFVLLSLGSTINWGGTEKPLPVDMVLISLCFGLSIATMVQCFGHISGGHINPAVTVAMVCTRKISIAKSVFYIAAQCLGAIIGAGILYLVTPPSVVGGLGVTMVHGNLTAGHGLLVELIITFQLVFTIFASCDSKRTDVTGDIALAIGFSVAIGHLFAINYTGASMNPARSFGPAVIMGNWENHWIYWVGPIIGAVLAGGLYEYVFCPDV[… about 60 residues …]
notes: as for B2
[2]
  stoichiometry N: 4

B8: AQP4 I199A, C-terminal GFP fusion (natural protein, human)
chain: MSDRPTARRWGKCGPLCTRENIMVAFKGVWTQAFWKAVTAEFLAMLIFVLLSLGSTINWGGTEKPLPVDMVLISLCFGLSIATMVQCFGHISGGHINPAVTVAMVCTRKISIAKSVFYIAAQCLGAIIGAGILYLVTPPSVVGGLGVTMVHGNLTAGHGLLVELIITFQLVFTIFASCDSKRTDVTGSIALAIGFSVAAGHLFAINYTGASMNPARSFGPAVIMGNWENHWIYWVGPIIGAVLAGGLYEYVFCPDV[… about 60 residues …]
notes: as for B2
[2]
  stoichiometry N: 4

B9: AQP4 T183A, C-terminal GFP fusion (natural protein, human)
chain: MSDRPTARRWGKCGPLCTRENIMVAFKGVWTQAFWKAVTAEFLAMLIFVLLSLGSTINWGGTEKPLPVDMVLISLCFGLSIATMVQCFGHISGGHINPAVTVAMVCTRKISIAKSVFYIAAQCLGAIIGAGILYLVTPPSVVGGLGVTMVHGNLTAGHGLLVELIITFQLVFTIFASCDSKRADVTGSIALAIGFSVAIGHLFAINYTGASMNPARSFGPAVIMGNWENHWIYWVGPIIGAVLAGGLYEYVFCPDV[… about 60 residues …]
notes: as for B2
[2]
  stoichiometry N: 4

B10: AQP4 L79A, C-terminal GFP fusion (natural protein, human)
chain: MSDRPTARRWGKCGPLCTRENIMVAFKGVWTQAFWKAVTAEFLAMLIFVLLSLGSTINWGGTEKPLPVDMVLISLCFGASIATMVQCFGHISGGHINPAVTVAMVCTRKISIAKSVFYIAAQCLGAIIGAGILYLVTPPSVVGGLGVTMVHGNLTAGHGLLVELIITFQLVFTIFASCDSKRTDVTGSIALAIGFSVAIGHLFAINYTGASMNPARSFGPAVIMGNWENHWIYWVGPIIGAVLAGGLYEYVFCPDV[… about 60 residues …]
notes: as for B2
[2]
  stoichiometry N: 4

B11: AQP4 G187A, C-terminal GFP fusion (natural protein, human)
chain: MSDRPTARRWGKCGPLCTRENIMVAFKGVWTQAFWKAVTAEFLAMLIFVLLSLGSTINWGGTEKPLPVDMVLISLCFGLSIATMVQCFGHISGGHINPAVTVAMVCTRKISIAKSVFYIAAQCLGAIIGAGILYLVTPPSVVGGLGVTMVHGNLTAGHGLLVELIITFQLVFTIFASCDSKRTDVTASIALAIGFSVAIGHLFAINYTGASMNPARSFGPAVIMGNWENHWIYWVGPIIGAVLAGGLYEYVFCPDV[… about 60 residues …]
notes: as for B2
[2]
  stoichiometry N: 4

B12: AQP4 F203A, C-terminal GFP fusion (natural protein, human)
chain: MSDRPTARRWGKCGPLCTRENIMVAFKGVWTQAFWKAVTAEFLAMLIFVLLSLGSTINWGGTEKPLPVDMVLISLCFGLSIATMVQCFGHISGGHINPAVTVAMVCTRKISIAKSVFYIAAQCLGAIIGAGILYLVTPPSVVGGLGVTMVHGNLTAGHGLLVELIITFQLVFTIFASCDSKRTDVTGSIALAIGFSVAIGHLAAINYTGASMNPARSFGPAVIMGNWENHWIYWVGPIIGAVLAGGLYEYVFCPDV[… about 60 residues …]
notes: as for B2
[2]
  stoichiometry N: 4

B13: AQP4 loop D1 compound mutant (D179A/S180A/K181A/R182A/T183A), C-terminal GFP fusion (natural protein, human)
chain: MSDRPTARRWGKCGPLCTRENIMVAFKGVWTQAFWKAVTAEFLAMLIFVLLSLGSTINWGGTEKPLPVDMVLISLCFGLSIATMVQCFGHISGGHINPAVTVAMVCTRKISIAKSVFYIAAQCLGAIIGAGILYLVTPPSVVGGLGVTMVHGNLTAGHGLLVELIITFQLVFTIFASCAAAAADVTGSIALAIGFSVAIGHLFAINYTGASMNPARSFGPAVIMGNWENHWIYWVGPIIGAVLAGGLYEYVFCPDV[… about 60 residues …]
notes: aquaporin-4 (AQP4), human cDNA in pDEST47; M1 isoform (323 residues); 179-DSKRT-183 changed to alanines; source: HEK293, transiently transfected, in Triton X-100 lysate; not shown: GFP, C-terminal, kept
[2]
  percent of the protein as dimers: 27%

B14: AQP4 S180D (phosphomimetic), C-terminal GFP fusion (natural protein, human)
chain: MSDRPTARRWGKCGPLCTRENIMVAFKGVWTQAFWKAVTAEFLAMLIFVLLSLGSTINWGGTEKPLPVDMVLISLCFGLSIATMVQCFGHISGGHINPAVTVAMVCTRKISIAKSVFYIAAQCLGAIIGAGILYLVTPPSVVGGLGVTMVHGNLTAGHGLLVELIITFQLVFTIFASCDDKRTDVTGSIALAIGFSVAIGHLFAINYTGASMNPARSFGPAVIMGNWENHWIYWVGPIIGAVLAGGLYEYVFCPDV[… about 60 residues …]
notes: as for B2
[2]
  stoichiometry N: 4

B15: AQP4 V185A, C-terminal GFP fusion (natural protein, human)
chain: MSDRPTARRWGKCGPLCTRENIMVAFKGVWTQAFWKAVTAEFLAMLIFVLLSLGSTINWGGTEKPLPVDMVLISLCFGLSIATMVQCFGHISGGHINPAVTVAMVCTRKISIAKSVFYIAAQCLGAIIGAGILYLVTPPSVVGGLGVTMVHGNLTAGHGLLVELIITFQLVFTIFASCDSKRTDATGSIALAIGFSVAIGHLFAINYTGASMNPARSFGPAVIMGNWENHWIYWVGPIIGAVLAGGLYEYVFCPDV[… about 60 residues …]
notes: as for B2
[2]
  stoichiometry N: 4

B16: AQP4 T186A, C-terminal GFP fusion (natural protein, human)
chain: MSDRPTARRWGKCGPLCTRENIMVAFKGVWTQAFWKAVTAEFLAMLIFVLLSLGSTINWGGTEKPLPVDMVLISLCFGLSIATMVQCFGHISGGHINPAVTVAMVCTRKISIAKSVFYIAAQCLGAIIGAGILYLVTPPSVVGGLGVTMVHGNLTAGHGLLVELIITFQLVFTIFASCDSKRTDVAGSIALAIGFSVAIGHLFAINYTGASMNPARSFGPAVIMGNWENHWIYWVGPIIGAVLAGGLYEYVFCPDV[… about 60 residues …]
notes: as for B2
[2]
  stoichiometry N: 4

Where two headings read alike, the source gives them in different places.
